Experimental data from PubChem BioAssay AID504333 (National Center for Advancing Translational Sciences (NCATS), 2011).
The campaign covered roughly 360,000 compounds. About 16,000 (4.4%) were called active. The shares of active, inactive and inconclusive entries below differ from those in the screen. Calls come from the whole dose curve; as a rule, active = well fitted inhibition curve with a large enough effect; inconclusive = small, poorly fitted or top-dose-only effect; inactive = no such curve, though single readings can be large or run the other way. Potencies beside an inconclusive call are fits to weak or partial responses and may not hold up.

The molecules below were run against Bromodomain adjacent to zinc finger domain protein 2B (Homo sapiens) (UniProt Q9UIF8) (assay: qHTS Assay for Inhibitors of BAZ2B). Details: AlphaScreen BAZ2B-H3K14Ac peptide displacement; series mostly up to 114 µM.
Sequence of UniProt Q9UIF8 (Q9UIF8 whole entry, looked up, the tested form may be a part): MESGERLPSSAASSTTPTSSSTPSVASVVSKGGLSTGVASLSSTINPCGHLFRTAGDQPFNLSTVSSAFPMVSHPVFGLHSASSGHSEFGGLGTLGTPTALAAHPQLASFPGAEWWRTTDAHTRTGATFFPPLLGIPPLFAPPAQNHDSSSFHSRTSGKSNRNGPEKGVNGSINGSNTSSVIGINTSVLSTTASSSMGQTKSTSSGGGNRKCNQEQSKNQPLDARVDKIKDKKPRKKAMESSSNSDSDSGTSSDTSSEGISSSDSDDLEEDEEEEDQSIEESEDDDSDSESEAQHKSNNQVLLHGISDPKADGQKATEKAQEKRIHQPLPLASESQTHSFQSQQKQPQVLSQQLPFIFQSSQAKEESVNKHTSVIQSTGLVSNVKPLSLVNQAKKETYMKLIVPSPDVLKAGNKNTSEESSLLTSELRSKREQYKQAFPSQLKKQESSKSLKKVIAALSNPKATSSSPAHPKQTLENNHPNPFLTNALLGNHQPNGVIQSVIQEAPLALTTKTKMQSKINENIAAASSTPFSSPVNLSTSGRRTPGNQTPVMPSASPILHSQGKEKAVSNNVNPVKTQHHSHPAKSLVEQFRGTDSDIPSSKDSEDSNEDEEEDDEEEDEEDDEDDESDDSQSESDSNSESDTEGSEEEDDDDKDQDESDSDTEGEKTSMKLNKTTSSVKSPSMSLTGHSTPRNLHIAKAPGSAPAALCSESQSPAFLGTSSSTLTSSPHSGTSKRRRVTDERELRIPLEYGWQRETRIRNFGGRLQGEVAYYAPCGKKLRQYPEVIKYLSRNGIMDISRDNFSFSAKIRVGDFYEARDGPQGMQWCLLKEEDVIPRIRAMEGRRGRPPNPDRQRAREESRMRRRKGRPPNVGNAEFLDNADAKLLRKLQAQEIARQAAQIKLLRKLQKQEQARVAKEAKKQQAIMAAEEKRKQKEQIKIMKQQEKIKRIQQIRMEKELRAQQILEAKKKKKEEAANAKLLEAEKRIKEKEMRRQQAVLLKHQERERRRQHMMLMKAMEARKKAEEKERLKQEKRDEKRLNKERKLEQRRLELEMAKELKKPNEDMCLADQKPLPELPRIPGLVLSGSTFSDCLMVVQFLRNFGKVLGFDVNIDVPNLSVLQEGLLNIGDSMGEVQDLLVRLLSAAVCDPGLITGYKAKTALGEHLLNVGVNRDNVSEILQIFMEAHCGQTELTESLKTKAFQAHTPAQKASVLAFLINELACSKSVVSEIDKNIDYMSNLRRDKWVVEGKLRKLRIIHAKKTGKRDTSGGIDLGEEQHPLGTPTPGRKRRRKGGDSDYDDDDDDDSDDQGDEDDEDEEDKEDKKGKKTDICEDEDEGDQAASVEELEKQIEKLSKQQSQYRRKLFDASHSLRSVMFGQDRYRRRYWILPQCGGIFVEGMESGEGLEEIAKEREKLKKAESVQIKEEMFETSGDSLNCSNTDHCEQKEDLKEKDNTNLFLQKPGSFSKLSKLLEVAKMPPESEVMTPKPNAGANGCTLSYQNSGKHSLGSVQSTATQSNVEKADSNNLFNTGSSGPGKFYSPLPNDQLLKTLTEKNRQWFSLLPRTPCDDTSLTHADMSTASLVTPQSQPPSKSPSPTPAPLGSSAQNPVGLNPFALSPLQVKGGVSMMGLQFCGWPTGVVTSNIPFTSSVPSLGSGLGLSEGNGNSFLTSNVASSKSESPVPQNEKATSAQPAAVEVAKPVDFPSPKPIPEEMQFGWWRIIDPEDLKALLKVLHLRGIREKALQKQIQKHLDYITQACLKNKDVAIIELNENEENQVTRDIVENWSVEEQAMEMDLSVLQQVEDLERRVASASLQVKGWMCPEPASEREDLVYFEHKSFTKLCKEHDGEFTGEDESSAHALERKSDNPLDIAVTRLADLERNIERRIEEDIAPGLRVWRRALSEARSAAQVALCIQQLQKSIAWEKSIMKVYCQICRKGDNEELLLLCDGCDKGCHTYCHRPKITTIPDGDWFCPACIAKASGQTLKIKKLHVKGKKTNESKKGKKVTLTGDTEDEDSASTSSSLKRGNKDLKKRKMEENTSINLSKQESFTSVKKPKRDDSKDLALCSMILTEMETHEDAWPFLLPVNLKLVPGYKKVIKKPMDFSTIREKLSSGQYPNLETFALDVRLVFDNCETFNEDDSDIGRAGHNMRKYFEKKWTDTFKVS
Method in brief: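 BAZ2B (50 nM) with biotin-H3(5-23)K14Ac peptide (50 nM) in PBS pH 7.4, 0.01% Tween-20, preformed 30 min, then compound 30 min at room temperature; top concentration 110uM. AlphaScreen streptavidin donor/nickel chelate acceptor beads (10 ug/mL final), 20 min dark, signal read.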
Note: nearly all actives have a fitted effect of over 60% in size.
Potency is the fitted concentration of half-maximal effect; tags give direction and shape of the fitted curve.

Row | Compound | Potency
1 | CCn1cc(C(=O)NCCC(C)C)c(=O)c2cc(F)c(N3CCN(C(=O)c4ccco4)CC3)cc21 | inconclusive: 89.1 µM [inhibitor, single point]
2 | COc1ccc(Cc2nnc(NCCO)[nH]c2=O)cc1OC | inactive
3 | C=CCN(c1ccccc1OC)S(=O)(=O)c1ccc(Cl)c(C(=O)Nc2ccc(N3CCOCC3)cc2)c1 | inconclusive: 35.5 µM [inhibitor, full curve, poor fit]
4 | Cc1ccc(Nc2nc3ccccc3n3nnnc23)cc1 | inconclusive: 56.2 µM [inhibitor, partial curve, poor fit]
5 | CCCCNC(=O)c1cnn2c(C)c(Cc3c(F)cccc3Cl)c(C)nc12 | inactive
6 | O=C(COC(=O)c1c2c(nc3ccccc13)CCCC2)Nc1ccc2c(c1)OCO2 | inconclusive: 89.1 µM [inhibitor, single point]
7 | Cc1ccc(CNC(=O)c2nnn(CC(=O)Nc3cccc(C)c3C)c2N)cc1 | inconclusive: 79.4 µM [inhibitor, single point]
8 | Oc1ccc(Oc2ccc3c(C(F)(F)F)cc(C(F)(F)F)nc3n2)cc1 | inconclusive: 79.4 µM [inhibitor, single point]
9 | N=C1C(c2nc3ccccc3s2)=C(O)CN1NC(=O)c1c[nH]c2ccccc12 | inconclusive: 79.4 µM [inhibitor, single point]
10 | Cc1ccccc1Cn1c(CN2CCC(C(=O)NCCN(C)C)CC2)cc2ccccc21 | inconclusive: 56.2 µM [inhibitor, partial curve, poor fit]
11 | COc1ccc(Cl)cc1NC(=O)CN(C)C(=O)c1ccc2c(c1)CC(c1ccccc1)OC2=O (stereo unspecified) | inactive
12 | CCC1CCC(N2CCN(c3cccc(OC)c3)CC2)CC1 (stereo unspecified) | inconclusive: 89.1 µM [inhibitor, single point]
13 | O=C(Cc1cccc2ccccc12)NC(=S)Nc1cccc(C(=O)O)c1 | inconclusive: 79.4 µM [inhibitor, single point]
14 | O=C(NCCSc1c(-c2ccccc2)[nH]c2ccccc12)c1ccc(S(=O)(=O)N2CCOCC2)cc1 | inactive
15 | COc1cc(/C=N/Nc2cccc3cccnc23)cc(OC)c1O | active: 28.2 µM
16 | CC(=O)c1c2c3c(c(Br)ccc3n(C)c1=O)C(=O)c1ccccc1-2 | inconclusive: 79.4 µM [inhibitor, partial curve]
17 | CN1CCc2c(sc3nc(NN)n(Cc4ccccc4)c(=O)c23)C1 | inconclusive: 35.5 µM [inhibitor, partial curve]
18 | CCc1cc[n+](/C(C(=S)Nc2cccc(C)c2)=C(/[O-])c2ccc(C)c([N+](=O)[O-])c2)cc1 | inconclusive: 79.4 µM [inhibitor, single point]
19 | C=CCN=C1NN=C(c2cc(C)n(CCOC)c2C)CS1 | inconclusive: 79.4 µM [inhibitor, single point]
20 | Cc1nn(CCCC(=O)NCCc2ccccc2)c(C)c1[N+](=O)[O-] | inactive
21 | Cc1ccc(-n2ncc3c(=O)n(CC(=O)N(C(C)C)C(C)C)cnc32)cc1 | inactive
22 | COc1ccc(C(=O)Nc2ccc(N3CCCC3)cc2)cc1OC | inconclusive: 44.7 µM [inhibitor, partial curve]
23 | Cc1ccc(NC(=O)C2CC(=O)N(c3ccc4c5c(cccc35)CC4)C2)cc1 (stereo unspecified) | inconclusive: 89.1 µM [inhibitor, single point]
24 | c1ccc(C[n+]2csc3ccccc32)cc1 | inconclusive: 89.1 µM [inhibitor, single point]

Row | Compound | Potency
25 | CCOc1ccc(N/C=C/C(=O)c2ccc3ccccc3c2)c([N+](=O)[O-])c1 | inconclusive: 3.55 µM [inhibitor, full curve]
26 | CCOC(=O)Cn1cnc2sc3c(c2c1=O)CCC3 | inconclusive: 79.4 µM [inhibitor, single point]
27 | CCN(CC)CCN1C(=O)c2ccccc2NC1c1ccc(Br)cc1 (stereo unspecified) | inconclusive: 89.1 µM [inhibitor, single point]
28 | Cc1ccc(-c2csc(NC(=O)c3cnccn3)n2)cc1C | inconclusive: 89.1 µM [inhibitor, single point]
29 | O=C(CCN1C(=O)/C(=C\C=C\c2ccccc2)SC1=S)Nc1cccc(C(=O)O)c1 | active: 20 µM
30 | CC(=O)c1ccc(NC(=O)Cn2cc3c(n2)CCCC3)cc1 | inactive
31 | COc1ccc(-c2nc(CSCC(=O)NC3CC3)c(C)o2)cc1OC | inactive
32 | O=C(NC1CCCC1)c1cc2nc(-c3ccco3)cc(C(F)(F)F)n2n1 | inactive
33 | CC(Nc1n[nH]c(=S)[nH]c1=O)C(=O)OCc1ccccc1 (stereo unspecified) | inactive
34 | O=C(O)c1cccc(NC(=O)c2ccc3c(c2)C(=O)N(c2cccc([N+](=O)[O-])c2)C3=O)c1 | inactive
35 | COc1ccc(/C=c2\s/c(=C\C(=O)C(C)(C)C)[nH]c2=O)cc1O | inconclusive: 50.1 µM [inhibitor, partial curve]
36 | O=C(NCCSCc1ccccc1)c1cc(S(=O)(=O)N2CCOCC2)ccc1F | inactive
37 | CS(=O)(=O)N(Cc1ccccc1)c1ccccc1C(=O)N1CCN(c2ccccc2)CC1 | inconclusive: 89.1 µM [inhibitor, single point]
38 | Cc1cccc(C)c1-n1c(C)cc(/C=C2\C(=O)NN(c3ccccc3)C2=O)c1C | active: 14.1 µM
39 | C=CCc1ccccc1OCCSc1nc(-c2ccccc2F)nc2cc(=O)[nH]n12 | inconclusive: 50.1 µM [inhibitor, partial curve, poor fit]
40 | C/C(Cc1ccccc1)=N\NC(=O)CNC(=O)/C=C\c1ccccc1 | inconclusive: 0.708 µM [inhibitor, full curve, poor fit]
41 | CC1CN(CCOc2ccc(F)cc2)CC(C)O1 (stereo unspecified) | active: 50.1 µM
42 | Cc1ccc(-c2nc(N)s[n+]2-c2ccccc2)cc1 | inactive
43 | O=C(CNCCc1ccc(F)cc1)Nc1cc(F)ccc1F | active: 20 µM
44 | COc1c[nH]n(C2CCCCC2)c(=O)c1=O | inconclusive: 89.1 µM [inhibitor, single point]
45 | Cc1ccc2c(CN3CCCCC3C)cc(=O)oc2c1C (stereo unspecified) | inactive
46 | COc1ccccc1/C=C/C(=O)Nc1nc2n(n1)C(c1ccc(F)cc1)C=C(c1ccccc1)N2 (stereo unspecified) | inconclusive: 89.1 µM [inhibitor, single point]
47 | O=C(/C=C/c1cc2ccccc2o1)c1ccccc1O | active: 8.91 µM
48 | Cc1ccc(OCCn2c(C3CC(=O)N(Cc4ccc(F)cc4)C3)nc3ccccc32)c(C)c1 (stereo unspecified) | inconclusive: 89.1 µM [inhibitor, single point]

Row | Compound | Potency
49 | CCS(=O)(=O)NCCc1csc2nc(-c3ccc(OC)cc3)nn12 | inactive
50 | Cc1noc(C)c1C(=O)Nc1nc(C23CC4CC(CC(C4)C2)C3)cs1 | inconclusive: 89.1 µM [inhibitor, single point]
51 | Cc1ccc(C(=O)COC(=O)c2cc(=O)[nH]c3ccccc23)cc1C | active: 50.1 µM
52 | N#CC1=C(N)C2=C(N3CCCCC3)CCCC2C1(C#N)C#N (stereo unspecified) | active: 50.1 µM
53 | COc1ccc(N2CCN(C(=O)COc3ccc(Cl)cc3Cl)CC2)cc1 | inconclusive: 25.1 µM [inhibitor, partial curve]
54 | COc1cccc(C(=O)Nc2nnc(S(=O)(=O)N3CCCc4ccccc43)s2)c1 | inconclusive: 3.16 µM [inhibitor, partial curve, poor fit]
55 | COc1ccc(C2C(C(=O)c3cccs3)=C(O)C(=O)N2c2nncs2)cc1 (stereo unspecified) | inconclusive: 89.1 µM [inhibitor, single point]
56 | Cc1cccc(NC(=S)N2CCC(c3nc4ccccc4o3)CC2)c1 | inconclusive: 44.7 µM [inhibitor, partial curve]
57 | COc1cc(NC(=O)Cc2noc3ccccc23)cc(OC)c1OC | inconclusive: 70.8 µM [inhibitor, single point]
58 | CCc1ccc(CNC(=O)Cn2nc(C)c3nn(-c4ccc(Cl)cc4)c(C)c3c2=O)cc1 | inactive
59 | Oc1ccc(C(c2nnnn2C2CCCC2)N2CCc3ccccc3C2)cc1 (stereo unspecified) | active: 56.2 µM
60 | Cn1cccc1-c1cc2n(n1)CCC(=O)N2CCCC(=O)NCc1cccc(Cl)c1 | inconclusive: 50.1 µM [inhibitor, partial curve]
61 | O=C(O)CCN1Cc2ccccc2C1=O | inconclusive: 89.1 µM [inhibitor, single point]
62 | C#CCNC(=O)C1=C[C@@H](c2cn(C(C)=O)c3ccccc23)C[C@@H](OCCCCO)O1 | inconclusive: 79.4 µM [inhibitor, single point]
63 | O=C(NCC(c1ccc2c(c1)OCO2)N1CCN(c2ccccc2)CC1)c1ccc(F)c(F)c1 (stereo unspecified) | inactive
64 | COc1ccc(-c2csc(Nc3ccc(S(=O)(=O)Nc4cc(C)on4)cc3)n2)cc1C | active: 50.1 µM
65 | Cc1cccc(NC(=O)CN2C(=O)N/C(=C\c3cccn3-c3cccc(C(=O)O)c3)C2=O)c1 | active: 56.2 µM
66 | COC(=O)c1c(NC(C)=O)sc2c1CCCC2 | inactive
67 | CCOC(=O)c1cc(-c2nnc(SCC(=O)Nc3ccc(F)cc3)o2)c(C)nc1C | inactive
68 | Clc1cccc(Nc2nc(-c3cccnc3)cs2)c1 | inconclusive: 50.1 µM [inhibitor, partial curve]
69 | CCc1cc(=O)oc2cc(OC(C)C(=O)O)c(Cl)cc12 (stereo unspecified) | inconclusive: 100 µM [inhibitor, single point]
70 | O=C(O)c1cccc(S(=O)(=O)Nc2cccc(S(=O)(=O)N3CCCCCC3)c2)c1 | inconclusive: 31.6 µM [inhibitor, full curve]
71 | CCOC(=O)c1sc(N(Cc2ccccc2)C(=O)CCl)nc1C | inactive
